T1: recombinant human FAP (Homo sapiens, UniProt Q12884)
T1 sequence (Q12884 1-760): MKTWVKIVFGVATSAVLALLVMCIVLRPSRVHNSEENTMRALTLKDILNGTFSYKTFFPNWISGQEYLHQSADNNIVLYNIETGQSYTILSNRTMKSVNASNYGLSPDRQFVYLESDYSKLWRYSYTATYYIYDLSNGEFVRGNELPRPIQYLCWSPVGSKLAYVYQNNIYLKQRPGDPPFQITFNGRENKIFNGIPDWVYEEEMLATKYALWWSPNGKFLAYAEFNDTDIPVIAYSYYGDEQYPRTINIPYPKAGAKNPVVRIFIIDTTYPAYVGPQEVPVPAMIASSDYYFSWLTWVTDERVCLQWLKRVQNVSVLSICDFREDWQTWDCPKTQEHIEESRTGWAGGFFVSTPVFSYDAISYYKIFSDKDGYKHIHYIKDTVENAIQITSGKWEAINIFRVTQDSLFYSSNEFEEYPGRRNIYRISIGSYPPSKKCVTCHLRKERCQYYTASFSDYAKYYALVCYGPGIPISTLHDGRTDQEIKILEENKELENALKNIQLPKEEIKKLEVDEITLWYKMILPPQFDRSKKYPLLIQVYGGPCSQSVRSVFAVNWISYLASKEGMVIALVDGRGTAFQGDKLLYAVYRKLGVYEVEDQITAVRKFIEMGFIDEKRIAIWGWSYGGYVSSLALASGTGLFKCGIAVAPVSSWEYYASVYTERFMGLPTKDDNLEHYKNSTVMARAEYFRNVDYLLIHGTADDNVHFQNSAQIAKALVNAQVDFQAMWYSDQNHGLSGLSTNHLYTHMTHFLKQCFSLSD

B1: T1.06: K&H: anti-hu FAP/hu IL-12, hu IgG1 DANG (2 + 1, HC scFv) (seq2, seq3, seq8) (antibody)
heavy: QVQLVQSGAEVKKPGASVKVSCKTSRYTFTEYTIHWVRQAPGQRLEWIGGINPNNGIPNYNQKFKGRVTITVDTSASTAYMELSSLRSEDTAVYYCARRRIAYGYDEGHAMDYWGQGTLVTVSSASTKGPSVFPLAPSSKSTSGGTAALGCLVKDYFPEPVTVSWNSGALTSGVHTFPAVLQSSGLYSLSSVVTVPSSSLGTQTYICNVNHKPSNTKVDKKVEPKSCDKTHTCPPCPAPELLGGPSVFLFPPKPKDTLMISRTPEVTCVVVAVSHEDPEVKFNWYVDGVEVHNAKTKPREEQYGSTYRVVSVLTVLHQDWLNGKEYKCKVSNKALPAPIEKTISKAKGQPREPQVYTLPPSRDELTKNQVSLWCLVKGFYPSDIAVEWESNGQPENNYKTTPPVLDSDGSFFLYSKLTVDKSRWQQGNVFSCSVMHEALHNHYTQKSLSLSPGKGGGGSGGGGSGGGGSQVQLVQSGAEVKKPGASVKVSCKTSRYTFTEYTIHWVRQAPGQRLEWIGGINPNNGIPNYNQKFKGRVTITVDTSASTAYMELSSLRSEDTAVYYCARRRIAYGYDEGHAMDYWGQGTLVTVSSGGGGSGGGGSGGGGSGGGGSDIVMTQSPDSLAVSLGERATINCKSSQSLLYSRNQKNYLAWYQQKPGQPPKLLIFWASTRESGVPDRFSGSGFGTDFTLTISSLQAEDVAVYYCQQYFSYPLTFGQGTKVEIK
light: DIVMTQSPDSLAVSLGERATINCKSSQSLLYSRNQKNYLAWYQQKPGQPPKLLIFWASTRESGVPDRFSGSGFGTDFTLTISSLQAEDVAVYYCQQYFSYPLTFGQGTKVEIKRTVAAPSVFIFPPSDEQLKSGTASVVCLLNNFYPREAKVQWKVDNALQSGNSQESVTEQDSKDSTYSLSSTLTLSKADYEKHKVYACEVTHQGLSSPVTKSFNRGEC
chain: IWELKKDVYVVELDWYPDAPGEMVVLTCDTPEEDGITWTLDQSSEVLGSGKTLTIQVKEFGDAGQYTCHKGGEVLSHSLLLLHKKEDGIWSTDILKDQKEPKNKTFLRCEAKNYSGRFTCWWLTTISTDLTFSVKSSRGSSDPQGVTCGAATLSAERVRGDNKEYEYSVECQEDSACPAAEESLPIEVMVDAVHKLKYENYTSSFFIRDIIKPDPPKNLQLKPLKNSRQVEVSWEYPDTWSTPHSYFSLTFCVQVQGKSKREKKDRVFTDKTSATVICRKNASISVRAQDRYYSSSWSEWASVPCSGGGGSGGGGSGGGGSRNLPVATPDPGMFPCLHHSQNLLRAVSNMLQKARQTLEFYPCTSEEIDHEDITKDKTSTVEACLPLELTKNESCLNSRETSFITNGSCLASRKTSFMMALCLSSIYEDLKMYQVEFKTMNAKLLMDPKRQIFLDQNMLAVIDELMQALNFNSETVPQKSSLEEPDFYKTKIKLCILLHAFRIRAVTIDRVMSYLNASGGGGSGGGGS[skipping human IgG1 Fc with changes]
B2: T1.07: K&H: anti-hu FAP/hu IL-12 mut2, hu IgG1 DANG (2 + 1, HC scFv) (seq2, seq5, seq8) (antibody)
heavy: B1 heavy
light: B1 light
chain: IWELKKDVYVVELDWYPDAPGEMVVLTCDTPEEDGITWTLDQSSEVLGSGKTLTIQVKEFGDAGQYTCHKGGEVLSHSLLLLHKKEDGIWSTDILKDQKEPKNKTFLRCEAKNYSGRFTCWWLTTISTDLTFSVKSSRGSSDPQGVTCGAATLSAERVRGDNKEYEYSVECQEDSACPAAEESLPIEVMVDAVHKLKYENYTSSFFIRDIIKPDPPKNLQLKPLKNSRQVEVSWEYPDTWSTPHSYFSLTFCVQVQGASAREAADRVFTDKTSATVICRKNASISVRAQDRYYSSSWSEWASVPCSGGGGSGGGGSGGGGSRNLPVATPDPGMFPCLHHSQNLLRAVSNMLQKARQTLEFYPCTSEEIDHEDITKDKTSTVEACLPLELTKNESCLNSRETSFITNGSCLASRKTSFMMALCLSSIYEDLKMYQVEFKTMNAKLLMDPKRQIFLDQNMLAVIDELMQALNFNSETVPQKSSLEEPDFYKTKIKLCILLHAFRIRAVTIDRVMSYLNASGGGGSGGGGS[skipping human IgG1 Fc with changes]
B3: T1.08: K&H: anti-hu FAP/hu IL-12, hu IgG1 DANG (2 + 1, LC scFv) (seq1, seq3, seq9) (antibody)
heavy: QVQLVQSGAEVKKPGASVKVSCKTSRYTFTEYTIHWVRQAPGQRLEWIGGINPNNGIPNYNQKFKGRVTITVDTSASTAYMELSSLRSEDTAVYYCARRRIAYGYDEGHAMDYWGQGTLVTVSSASTKGPSVFPLAPSSKSTSGGTAALGCLVKDYFPEPVTVSWNSGALTSGVHTFPAVLQSSGLYSLSSVVTVPSSSLGTQTYICNVNHKPSNTKVDKKVEPKSCDKTHTCPPCPAPELLGGPSVFLFPPKPKDTLMISRTPEVTCVVVAVSHEDPEVKFNWYVDGVEVHNAKTKPREEQYGSTYRVVSVLTVLHQDWLNGKEYKCKVSNKALPAPIEKTISKAKGQPREPQVYTLPPSRDELTKNQVSLWCLVKGFYPSDIAVEWESNGQPENNYKTTPPVLDSDGSFFLYSKLTVDKSRWQQGNVFSCSVMHEALHNHYTQKSLSLSPGK
light: DIVMTQSPDSLAVSLGERATINCKSSQSLLYSRNQKNYLAWYQQKPGQPPKLLIFWASTRESGVPDRFSGSGFGTDFTLTISSLQAEDVAVYYCQQYFSYPLTFGQGTKVEIKRTVAAPSVFIFPPSDEQLKSGTASVVCLLNNFYPREAKVQWKVDNALQSGNSQESVTEQDSKDSTYSLSSTLTLSKADYEKHKVYACEVTHQGLSSPVTKSFNRGECGGGGSGGGGSGGGGSQVQLVQSGAEVKKPGASVKVSCKTSRYTFTEYTIHWVRQAPGQRLEWIGGINPNNGIPNYNQKFKGRVTITVDTSASTAYMELSSLRSEDTAVYYCARRRIAYGYDEGHAMDYWGQGTLVTVSSGGGGSGGGGSGGGGSGGGGSDIVMTQSPDSLAVSLGERATINCKSSQSLLYSRNQKNYLAWYQQKPGQPPKLLIFWASTRESGVPDRFSGSGFGTDFTLTISSLQAEDVAVYYCQQYFSYPLTFGQGTKVEIK
chain: IWELKKDVYVVELDWYPDAPGEMVVLTCDTPEEDGITWTLDQSSEVLGSGKTLTIQVKEFGDAGQYTCHKGGEVLSHSLLLLHKKEDGIWSTDILKDQKEPKNKTFLRCEAKNYSGRFTCWWLTTISTDLTFSVKSSRGSSDPQGVTCGAATLSAERVRGDNKEYEYSVECQEDSACPAAEESLPIEVMVDAVHKLKYENYTSSFFIRDIIKPDPPKNLQLKPLKNSRQVEVSWEYPDTWSTPHSYFSLTFCVQVQGKSKREKKDRVFTDKTSATVICRKNASISVRAQDRYYSSSWSEWASVPCSGGGGSGGGGSGGGGSRNLPVATPDPGMFPCLHHSQNLLRAVSNMLQKARQTLEFYPCTSEEIDHEDITKDKTSTVEACLPLELTKNESCLNSRETSFITNGSCLASRKTSFMMALCLSSIYEDLKMYQVEFKTMNAKLLMDPKRQIFLDQNMLAVIDELMQALNFNSETVPQKSSLEEPDFYKTKIKLCILLHAFRIRAVTIDRVMSYLNASGGGGSGGGGS[skipping human IgG1 Fc with changes]
B4: T1.09: K&H: anti-hu FAP/hu IL-12 mut2, hu IgG1 DANG (2 + 1, LC scFv) (seq1, seq5, seq9) (antibody)
heavy: B3 heavy
light: B3 light
chain: IWELKKDVYVVELDWYPDAPGEMVVLTCDTPEEDGITWTLDQSSEVLGSGKTLTIQVKEFGDAGQYTCHKGGEVLSHSLLLLHKKEDGIWSTDILKDQKEPKNKTFLRCEAKNYSGRFTCWWLTTISTDLTFSVKSSRGSSDPQGVTCGAATLSAERVRGDNKEYEYSVECQEDSACPAAEESLPIEVMVDAVHKLKYENYTSSFFIRDIIKPDPPKNLQLKPLKNSRQVEVSWEYPDTWSTPHSYFSLTFCVQVQGASAREAADRVFTDKTSATVICRKNASISVRAQDRYYSSSWSEWASVPCSGGGGSGGGGSGGGGSRNLPVATPDPGMFPCLHHSQNLLRAVSNMLQKARQTLEFYPCTSEEIDHEDITKDKTSTVEACLPLELTKNESCLNSRETSFITNGSCLASRKTSFMMALCLSSIYEDLKMYQVEFKTMNAKLLMDPKRQIFLDQNMLAVIDELMQALNFNSETVPQKSSLEEPDFYKTKIKLCILLHAFRIRAVTIDRVMSYLNASGGGGSGGGGS[skipping human IgG1 Fc with changes]

The molecules below were run against T1, recombinant human FAP (assay: Surface plasmon resonance binding to recombinant human FAP). Settings: SPR, 1:1 binding model, protein captured by anti-human IgG (Fc), analyte human FAP.
Description: Specifically, the surface of the CM5 chip was activated with a 1:1 mixture of […] NHS (N-hydroxysuccinimide) and […] EDC (1-Ethyl-3-(3-dimethylaminopropyl) carbodiimide), and 25 μg/ml of anti-human IgG (Fc) antibody was immobilized for 400 seconds at a rate of 10 μl/min. The remaining active ester groups were blocked with 1 M ethanolamine. T1.01, T1.02 and T1.03 were diluted to 2 μg/ml and reacted on the CM5 chip immobilized with the anti-human IgG (Fc) antibody. The recombinant human FAP was diluted to 200 nM in 1×HBS-EP+buffer solution and diluted by serial dilution. The diluted recombinant human FAP was reacted at a rate of 30 μl/min. The association and dissociation times were 180 seconds and 400 seconds, respectively. After the dissociation, stabilization was performed for 60 seconds, and then a regeneration was performed for 30 seconds with a 10 mM glycine pH 1.5 solution at a rate of 30 μl/min.
Bindings of T1.04, T1.05, T1.06, T1.07, T1.08, T1.09, T1.10 and T1.11 to recombinant human […] were identified by surface plasmon resonance (SPR). The surface of the CM5 chip was activated with a 1:1 mixture of […] (N-hydroxysuccinimide) and […] (1-Ethyl-3-(3-dimethylaminopropyl) carbodiimide), and 25 μg/ml of anti-human IgG (Fc) antibody was immobilized for 400 seconds at a rate of 10 μl/min. The remaining active ester groups were blocked with 1 M ethanolamine.
Specifically, human proteins T1.04, T1.05, T1.06, T1.07, T1.08, T1.09, T1.10 and T1.11 were diluted to 1 μg/ml, 1 μg/ml, 1 μg/ml, 1 μg/ml, 0.5 μg/ml, 0.5 μg/ml, 0.5 μg/ml, and 1 μg/ml, respectively, and reacted on a CM5 chip immobilized with an anti-human IgG (Fc) antibody. The recombinant human FAP was diluted to 25 nM or 50 nM in 1×HBS-EP+buffer solution and diluted by serial dilution. The diluted recombinant human FAP was reacted at a rate of 30 μl/min. The association and dissociation times were 180 seconds and 400 seconds, respectively. After the dissociation, stabilization was performed for 60 seconds, and then a regeneration was performed for 30 seconds with a 10 mM glycine pH 1.5 solution at a rate of 30 μl/min.

| Molecule | ka | kd |
| --- | --- | --- |
| B1 | 104000 M⁻¹ s⁻¹ | 6.22e-05 s⁻¹ |
| B2 | 597000 M⁻¹ s⁻¹ | 7.64e-05 s⁻¹ |
| B3 | 446000 M⁻¹ s⁻¹ | 7.87e-05 s⁻¹ |
| B4 | 517000 M⁻¹ s⁻¹ | 0.000111 s⁻¹ |

— patent US20250144178A1, “PHARMACEUTICAL COMPOSITION FOR CANCER TREATMENT COMPRISING FUSION PROTEIN INCLUDING IL-12 AND ANTI-FAP ANTIBODY AND ANTICANCER AGENT” (KANAPH THERAPEUTICS INC., priority 2022, published 2025)
